According to the supplement of paper PMC3334620:
Over roughly 33,000 sequences, “E-score (-0.5 to 0.5)” has its median near -0.035; the highest 2% begin near 0.35. This is one part of the list.

biological target: T1, Pdr3 (UniProt P33200); assay: PBM E-score (8-mer binding enrichment) (E-score (-0.5 to 0.5)); higher = stronger / more preferred TF binding; most listed sequences are background and not binding sites; details: protein concentration: 200 nM; construct: GST-full length
T1 sequence: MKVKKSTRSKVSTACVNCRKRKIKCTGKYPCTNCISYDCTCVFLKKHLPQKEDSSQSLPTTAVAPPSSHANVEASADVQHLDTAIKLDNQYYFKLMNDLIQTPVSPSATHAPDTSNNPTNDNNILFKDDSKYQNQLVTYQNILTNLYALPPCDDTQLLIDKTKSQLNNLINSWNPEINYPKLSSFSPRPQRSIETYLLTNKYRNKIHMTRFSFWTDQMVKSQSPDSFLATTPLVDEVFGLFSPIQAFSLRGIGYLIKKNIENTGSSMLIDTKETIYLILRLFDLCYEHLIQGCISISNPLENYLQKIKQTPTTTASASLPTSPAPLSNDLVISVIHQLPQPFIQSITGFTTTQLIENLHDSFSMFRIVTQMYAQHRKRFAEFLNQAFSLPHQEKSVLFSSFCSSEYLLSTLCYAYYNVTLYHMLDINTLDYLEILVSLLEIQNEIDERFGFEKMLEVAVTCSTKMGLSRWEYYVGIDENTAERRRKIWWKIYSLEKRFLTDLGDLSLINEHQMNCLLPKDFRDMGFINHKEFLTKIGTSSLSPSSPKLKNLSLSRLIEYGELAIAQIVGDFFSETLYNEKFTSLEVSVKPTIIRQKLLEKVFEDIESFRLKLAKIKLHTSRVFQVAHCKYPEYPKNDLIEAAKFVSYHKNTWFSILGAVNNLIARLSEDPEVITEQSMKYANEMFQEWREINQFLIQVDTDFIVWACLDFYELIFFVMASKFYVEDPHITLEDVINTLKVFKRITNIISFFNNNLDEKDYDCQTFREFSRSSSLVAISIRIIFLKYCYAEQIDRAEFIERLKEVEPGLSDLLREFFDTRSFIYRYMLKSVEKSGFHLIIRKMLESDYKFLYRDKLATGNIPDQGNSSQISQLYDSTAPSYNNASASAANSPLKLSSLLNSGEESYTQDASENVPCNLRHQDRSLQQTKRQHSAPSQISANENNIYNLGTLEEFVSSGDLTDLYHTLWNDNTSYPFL
Summary of the method: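 Yeast transcription factors, full-length or as DNA-binding domains, were expressed with a GST tag using PURExpress in vitro transcription/translation. At about 100-200 nM they were applied to universal all-10-mer Agilent arrays, double-stranded by primer extension on fresh or once-stripped slides. Fluorescent anti-GST detected bound protein, and masliner normalised the scans. E-scores for ungapped eight-base words, pooled with reverse complements, came from the Universal PBM Analysis Suite.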

Sequence	PBM E-score
TAGGCCTA	-0.224
ACGGATTA	0.217
AATGTGAA	-0.116
ACTGCGCT	-0.189
TCGTACCA	-0.0559
CTAAACCA	-0.192
ATATCATC	0.0728
CCACCACG	-0.0173
GCCAAGCC	-0.0348
AACCTCAC	-0.158
CCAGTCTC	-0.16
CGCGCATC	0.141
ATCTGGGA	-0.26
CAAGGGCG	-0.212
CTCCTTCC	1e-05
ACGCAGAT	0.0761
ATGAATAA	-0.163
GACGGACC	0.33
AGGGAACT	0.0568
GCTATGGA	-0.0537
AGCTAACT	-0.0938
ACAGTATC	-0.21

Sequence	PBM E-score
CAAGATTC	0.142
GAATCAGA	0.117
AGATAGAC	-0.109
ATATATGC	0.11
ACGCTTGG	-0.205
CTGCTTGA	-0.259
GCGTCGGA	0.314
ATAAAAGA	-0.182
GCTCTAAA	-0.226
CCTATTCC	0.107
AGATCGGG	0.0992
TCCTGAAA	-0.0194
AGGTTATC	-0.182
CCGTCCAC	0.233
AGACTGTA	-0.194
ATCACGTC	-0.0604
AATGAAAA	0.0572
AATGGTGG	-0.0586
ACTGTCGG	0.0299
CTACGATA	-0.031
GTGGCGCA	-0.0588
GGGTGACA	0.173

Sequence	PBM E-score
AGTCGGAA	0.414
TCCAGCAA	-0.333
CGGTTTAG	0.0658
AGCAGAAT	0.0669
ACAAAGCC	0.0294
AGGTTCGA	-0.0184
AATGATTG	0.0739
TAAACACA	-0.146
AGGATCCG	0.301
ATGTCAAC	-0.11
CTCCATCA	0.126
GGTGGCAC	0.0222
CTCCTGTC	-0.192
ATAAGGAG	-0.0921
GCCGTTAC	0.23
CAACAAGG	-0.0235
CTGTGCAC	-0.197
AAAAATGA	-0.0876
AATGGGCA	0.0304
CGAAACCG	0.27
CAACTATC	0.0324
GCCACAGA	-0.163

Sequence	PBM E-score
GCAACACC	0.0609
ACGCGCCA	-0.0118
AGTCAAGC	-0.0903
CAAAGGAC	-0.179
ATTTTTAA	0.144
CGATGGTA	-0.0193
TCGCGAGA	0.144
AGCTACGG	0.0905
CCACCCAA	-0.0493
AATAACGG	0.275
GACGATGC	-0.093
AATCCGCA	0.246
AAGGTATC	-0.0275
CTATGGTC	-0.0378
CTGGCGTA	-0.246
AATGTGCT	0.101
TCCGGTCA	0.32
ACGCTTTC	-0.094
CTGGCATC	-0.298
AGGGCCTA	-0.129
